The campaign covered roughly 39,000 compounds. About 220 (0.56%) showed activity. Some of the results follow.
Test system: Escherichia coli K-12 BW25113
Experiment: relative growth (OD600 normalised to plate interquartile mean) (fraction); higher = less growth inhibition, active = 0.2 or less
Details: 50 µM; LB; incubation time: overnight (16-24 h)
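Further: static incubation at 37 °C against the wild-type strain, values averaged over two biological replicates.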

Row | Compound | relative growth
1 | C[C@@H](NC(=O)N(C)C[C@H]1OCc2ccccc2-c2c(n(C)c3ccccc23)C(=O)N([C@@H](C)CO)C[C@@H]1C)c1ccccc1 | inactive: 1.02
2 | COc1ccc(S(=O)(=O)N(C)C[C@@H]2Oc3ncc(-c4ccccc4)cc3C(=O)N([C@H](C)CO)C[C@@H]2C)cc1 | inactive: 1.02
3 | C[C@H](CO)N1C[C@H](C)[C@H](CN(C)C(=O)Nc2ccc(C(F)(F)F)cc2)OCCCC[C@H](C)Oc2ccc(NS(=O)(=O)c3ccccc3)cc2C1=O | inactive: 1.03
4 | CC(C)CC#Cc1ccc2c(c1)O[C@@H](CN(C)C(=O)C1CCOCC1)[C@H](C)CN([C@H](C)CO)S2(=O)=O | inactive: 0.986
5 | COc1ccc(CN(C)C[C@@H]2Oc3ccc(NS(=O)(=O)c4cn(C)cn4)cc3CC(=O)N([C@@H](C)CO)C[C@H]2C)cc1 | inactive: 0.913
6 | CC(=O)N1CCN(c2ccc(OCC3COC(Cn4ccnc4)(c4ccc(Cl)cc4Cl)O3)cc2)CC1 (centres undefined) | inactive: 0.954
7 | CN(C)CCC=C1c2ccccc2CCc2ccccc21.Cl | inactive: 0.976
8 | O=C(C[C@@H]1CC[C@@H](NC(=O)Cc2ccccn2)[C@@H](CO)O1)NCCCN1CCOCC1 | inactive: 1
9 | CC1(N)CCN(c2cnc(-c3cccc(Cl)c3Cl)c(N)n2)CC1 | inactive: 0.986
10 | COc1ccc(S(=O)(=O)Nc2ccc3c(c2)C(=O)N([C@@H](C)CO)C[C@H](C)[C@H](CN(C)S(=O)(=O)c2ccc(F)cc2)O3)cc1 | inactive: 1
11 | COc1ccc(NC(=O)Nc2ccc3c(c2)C(=O)N([C@H](C)CO)C[C@H](C)[C@@H](CN(C)C(=O)Nc2ccc(F)cc2)OCCCC[C@@H](C)O3)cc1 | inactive: 1
12 | COc1cccc(C#Cc2ccc3c(c2)O[C@@H](CN(C)C(C)=O)[C@@H](C)CN([C@@H](C)CO)S3(=O)=O)c1 | inactive: 1.05
13 | C[C@H](CO)N1C[C@H](C)[C@H](CN(C)Cc2ccc(Oc3ccccc3)cc2)Oc2ccc(NC(=O)CCCN(C)C)cc2C1=O | inactive: 0.964
14 | C[C@H](CO)N1C[C@H](C)[C@H](CN(C)Cc2ccncc2)Oc2ccc(NC(=O)CCN3CCOCC3)cc2CC1=O | inactive: 0.961
15 | O=c1ncccn1[C@@H]1O[C@H](CO)[C@@H](O)[C@H]1O | inactive: 0.722
16 | Cc1ccc(S(=O)(=O)N(C)C[C@@H]2Oc3ccc(NC(=O)Nc4cccc5ccccc45)cc3C(=O)N([C@H](C)CO)C[C@@H]2C)cc1 | inactive: 1.02
17 | Cc1cccc(NC(=O)Nc2ccc3c(c2)C(=O)N(C)[C@@H]2CC[C@H](CC(=O)NCc4ccccc4Cl)O[C@@H]2CO3)c1 | inactive: 1.03
18 | O=C(O)C1=CCNCC1 | inactive: 1.02
19 | C[C@H](CO)N1C[C@H](C)[C@@H](CN(C)Cc2ccncc2)Oc2ccc(NS(=O)(=O)c3ccc(F)cc3)cc2CC1=O | inactive: 1.01
20 | C[C@@H]1CN([C@@H](C)CO)C(=O)Cc2cc(NC(=O)Nc3ccccc3)ccc2O[C@H]1CN(C)Cc1ccc(-c2ccccc2)cc1 | inactive: 0.998

Row | Compound | relative growth
21 | C[C@H](CO)N1C[C@H](C)[C@@H](CN(C)C(=O)c2ccccc2)OCCCC[C@H](C)Oc2ccc(NC(=O)Cc3ccccc3)cc2C1=O | inactive: 1.02
22 | CC(C)NC(=O)N[C@H]1C=C[C@H](CC(=O)NCCN2CCCC2)O[C@H]1CO | inactive: 0.998
23 | C[C@@H]1CCCCO[C@H](CN(C)S(=O)(=O)c2ccc(Cl)cc2)[C@@H](C)CN([C@@H](C)CO)C(=O)c2cc(NS(=O)(=O)c3ccc(Cl)cc3)ccc2O1 | inactive: 1.01
24 | C[C@@H]1CN([C@H](C)CO)C(=O)c2cc(NC(=O)Nc3cccc4ccccc34)ccc2O[C@@H]1CN(C)S(=O)(=O)c1ccc(F)cc1 | inactive: 1.02
25 | C[C@H](CO)N1C[C@H](C)[C@H](CN(C)C(=O)CN(C)C)Oc2cc(C#Cc3ccc(F)cc3)ccc2S1(=O)=O | inactive: 0.971
26 | CC(C)NC(=O)N(C)C[C@H]1Oc2ccc(NS(=O)(=O)c3ccc(Cl)cc3)cc2CC(=O)N([C@H](C)CO)C[C@H]1C | inactive: 0.988
27 | CC[C@H]1OC(=O)[C@H](C)[C@@H](O[C@H]2C[C@@](C)(OC)[C@@H](O)[C@H](C)O2)[C@H](C)[C@@H](O[C@@H]2O[C@H](C)C[C@H](N(C)C)[C@H]2O)[C@](C)(OC)C[C@@H](C)C(=O)[C@H](C)[C@@H](O)[C@]1(C)O | active: 0.0351
28 | C[C@@H]1CCCCO[C@@H](CN(C)Cc2ccc(C(F)(F)F)cc2)[C@H](C)CN([C@H](C)CO)C(=O)c2cc(NC(=O)Nc3ccccc3)ccc2O1 | inactive: 0.998
29 | O=C(Oc1ccc(Cl)cc1)c1sc2ccccc2c1Cl | inactive: 1.05
30 | COc1ccc(NC(=O)N(C)C[C@@H]2OCCCC[C@@H](C)Oc3ccc(NC(=O)Nc4ccc5c(c4)OCO5)cc3C(=O)N([C@H](C)CO)C[C@@H]2C)cc1 | inactive: 1.03
31 | COc1ccc(NC(=O)Nc2ccc3c(c2)C(=O)N([C@H](C)CO)C[C@@H](C)[C@H](CN(C)C(=O)NC2CCCCC2)OCCCC[C@@H](C)O3)cc1 | inactive: 1
32 | CCCOc1ccc(S(=O)(=O)NCC[C@@H]2CCCN2C)cc1-c1nc2c(CCC)nn(C)c2c(=O)[nH]1 | inactive: 0.987
33 | C[C@H](CO)N1C[C@H](C)[C@@H](CN(C)C(=O)Nc2ccc(F)cc2)OCCCC[C@H](C)Oc2ccc(NS(=O)(=O)c3ccccc3)cc2C1=O | inactive: 1.01
34 | C[C@H](CO)N1C[C@H](C)[C@@H](CN(C)S(=O)(=O)c2cccs2)Oc2c(NS(=O)(=O)c3cn(C)cn3)cccc2C1=O | inactive: 1.02
35 | COCCNC(=O)C[C@H]1C[C@H]2c3cc(NC(=O)Nc4ccc(C(F)(F)F)cc4)ccc3O[C@H]2[C@H](CO)O1 | inactive: 0.971
36 | CN(C)CCCNC(=O)[C@@H]1[C@@H](CO)[C@@H]2Cn3c(ccc(-c4cccc(C(=O)N(C)C)c4)c3=O)[C@H]1N2 | inactive: 0.953
37 | O=C(C[C@H]1CC[C@@H]2NC[C@@H](O)COC[C@H]2O1)NCCN1CCCCC1 | inactive: 0.992
38 | COc1ccc(NC(=O)N(C)C[C@H]2OCc3ccccc3-c3c(n(C)c4ccccc34)C(=O)N([C@@H](C)CO)C[C@@H]2C)c(OC)c1 | inactive: 0.982
39 | C[C@H](CO)N1C[C@H](C)[C@@H](CN(C)C(=O)Nc2cccc(Oc3ccccn3)c2)OCc2cn(nn2)CCCC1=O | inactive: 1.04
40 | C[C@@H]1CN([C@H](C)CO)C(=O)c2cccc(NC(=O)C3CC3)c2O[C@H]1CN(C)C(=O)Nc1ccc2c(c1)OCO2 | inactive: 1

Row | Compound | relative growth
41 | COc1ccccc1CN1C(=O)c2ccccc2[C@@]2(Cc3ccccc3N(C3CC3)C2=O)[C@@H]1c1ccc(CO)cc1 | inactive: 1.01
42 | C[C@H]1CCCCO[C@@H](CN(C)Cc2ccncc2)[C@@H](C)CN([C@@H](C)CO)C(=O)c2cc(NS(=O)(=O)c3ccc(Cl)cc3)ccc2O1 | inactive: 1
43 | COc1ccc(C#Cc2ccc3c(c2)[C@]2(C(=O)N3)[C@H](c3ccc(O)cc3)N3[C@H](c4ccccc4)[C@H](c4ccccc4)OC(=O)[C@H]3[C@@H]2C(=O)N2CCCCCCC2)cc1 | inactive: 1.02
44 | COc1cc(C=O)ccc1O | inactive: 0.982
45 | C[C@H]1CCCCO[C@@H](CN(C)C(=O)Nc2ccc(C(F)(F)F)cc2)[C@@H](C)CN([C@@H](C)CO)C(=O)c2cc(NC(=O)Cc3ccccc3)ccc2O1 | inactive: 1.04
46 | C[C@H](CO)N1C[C@H](C)[C@@H](CN(C)Cc2ccc(C(=O)Nc3ccccc3N)cc2)Oc2ccc(NC(=O)Cc3cn(C)c4ccccc34)cc2C1=O | inactive: 0.982
47 | CCCCCC/C=C/C=C\CCCCCCCC(=O)O | inactive: 1.02
48 | Cc1cc(C)c(N(Cc2ccccc2)S(=O)(=O)c2ccc(OCCNC(=O)c3cc4ccccc4o3)cc2)c(C(=O)NO)c1 | inactive: 0.998
49 | CN(C)CC(=O)N1[C@@H]2Cn3c(ccc(-c4ccccc4)c3=O)[C@H]1[C@@H](C(=O)N1CCN(C)CC1)[C@@H]2CO | inactive: 0.984
50 | C[C@H]1CCCCO[C@H](CN(C)S(=O)(=O)c2ccccc2)[C@@H](C)CN([C@@H](C)CO)C(=O)c2cc(NC(=O)Nc3ccccc3)ccc2O1 | inactive: 1.02
51 | Cc1ccc2nc3c(cc(C(=O)NCCN4CCOCC4)c(=N)n3C[C@H]3CCCO3)c(=O)n2c1 | inactive: 1.01
52 | CCCNC(=O)N1C[C@@H](C)[C@H](OC)CN(C)C(=O)c2ccc(NS(=O)(=O)CC(F)(F)F)cc2OC[C@@H]1C | inactive: 0.976
53 | COc1ccc2cccc(CCNC(C)=O)c2c1 | inactive: 1.08
54 | CN(C)CCCCSC(=N)N | inactive: 1
55 | C[C@H](CO)N1C[C@H](C)[C@H](CN(C)S(=O)(=O)c2ccccc2)OCCCC[C@H](C)Oc2ccc(NC(=O)Nc3ccc4c(c3)OCO4)cc2C1=O | inactive: 1.01
56 | CC(C)[C@@H](CC[C@@H](C)[C@H]1CC[C@H]2[C@@H]3[C@H](O)C[C@H]4C[C@@H](NCCCNCCCCNCCCN)CC[C@]4(C)[C@H]3CC[C@]12C)OS(=O)(=O)O | active: 0.152
57 | C[C@@H]1CN([C@H](C)CO)C(=O)Cc2cc(NS(=O)(=O)c3ccc(F)cc3)ccc2O[C@H]1CN(C)Cc1ccc(Cl)c(Cl)c1 | inactive: 1.01
58 | C[C@H]1CN([C@@H](C)CO)C(=O)c2cc(NS(C)(=O)=O)ccc2O[C@@H]1CN(C)C(=O)Nc1ccc(C(F)(F)F)cc1 | inactive: 0.954
59 | Cc1ccc(S(=O)(=O)Nc2ccc3c(c2)CC(=O)N([C@@H](C)CO)C[C@@H](C)[C@@H](CN(C)Cc2ccc(Cl)c(Cl)c2)O3)cc1 | inactive: 0.987

Reference: the supplement of paper PMC9446081
